Measurements reported in patent publication US20250313546A1, “NUCLEIC ACID BINDERS” (UNIVERSITY OF STRATHCLYDE, priority 2022, published 2025).
pIC50: −log10 of the molar value. In brackets after ≈: the same amount, converted by molar mass.

Experiments:
[1] = tested on: A. fumigatus TR34/L98H (F10017, an azole resistant strain); conditions: Aspergillus fumigatus, read-out: MIC99 A. fumigatus TR34/L98H
Experimental: The Minimum Inhibitory Concentration (MIC, at 99% inhibition) of the compounds was determined using the broth microdilution method as recommended by EUCAST (EUCAST Definitive Document E.DEF 9.3.2, Method for the determination of broth dilution minimum inhibitory concentrations of antifungal agents for conidia forming moulds and EUCAST Definitive Document E.DEF 7.3.2 Method for the determination of broth dilution minimum inhibitory concentrations of antifungal agents for yeasts).

[2] = tested on: T. b. brucei B48 (a strain resistant to diamidines and melaminophenyl arsenicals); test: Resazurin-based (Alamar blue) drug sensitivity assay; conditions: Trypanosoma brucei, read-out: IC50 T.b. brucei B48
Experimental: A detailed description of the procedure for evaluating activity against trypanosomes, using an Alamar Blue (resazurin) assay, is described below.
The bloodstream form (BSF) T. b. brucei s427 (see De Koning, H. P. et al., Mol. Biochem. Parasitol. 2000, 106, 181-185), T. evansi AntTat 3/3 (see Dean, S. et al., Proc. Natl. Acad. Sci. USA, 2013, 110, 14741-14746), and T. equiperdum (see Stewart, M. L. et al., Eukaryot. Cell, 2010, 9, 336-343) were cultured in HMI-9 medium (Life Technologies, Paisley, United Kingdom) supplemented with 10% heat inactivated Foetal Bovine Serum (FBS (PAA Laboratories Linz, Austria)), 14 μL/L β-mercaptoethanol (BDH, Dorset, UK), and 3.0 g/L NaHCO3 (Sigma-Aldrich) and adjusted to pH 7.4. These cell lines were maintained at 37° C. in a humidified, 5% CO2 environment.
A resazurin-based (Alamar blue) drug sensitivity assay was used to assess and compare the activity of standard trypanocides in the different cell lines investigated (see Gould, M. K. et al., Anal. Biochem., 2008, 382, 87-93). Briefly, 23 doubling dilutions of the test compound of the invention, starting at 100 μM, and a compound-free control were prepared in 100 μL medium in a 96-well white plate (Greiner Bio-one, Frickenhausen, Germany). The cells were adjusted to 2×10^4 cells/mL for T. b. brucei and T. equiperdum; 4×10^4 cells/mL for T. evansi; and 5×10^5 cells/mL for T. congolense in the appropriate medium. 100 μL of the adjusted cells was then added to the wells containing drug dilutions and incubated for 48 h under respective culture condition. Thereafter, 20 μL of 125 mg/mL resazurin sodium dye was added, and the plate was incubated for a further 24 h. The resorufin fluorescence in each well of the plate was determined and used to calculate the Half maximal effective concentration (EC50) of the drug, as described in Carruthers, L. V. et al., Mol. Microbiol., 2021, 116, 564-588.

[3] = tested on: T. b. brucei Lister S427 (a drug-sensitive wild type); test: as above; conditions: for T.b. brucei Selectivity Indices (SI, IC50 (μM)/IC50 (μM)) Group / T.b. brucei Selectivity Index (SI, IC50 (μM)/IC50 (μM)), numeric value: cytotoxicity against HEK293 cells vs T.b. brucei; for pIC50: Trypanosoma brucei, read-out: IC50 T.b. brucei
[4] = tested on: T congolense 6C3 (a diminazene resistant strain); test: as above; conditions: Trypanosoma congolense, read-out: IC50 T. congo C63
[5] = tested on: T. congolense IL3000 (a drug sensitive wild type); test: as above; conditions: Trypanosoma congolense, read-out: IC50 T. congo

Row | Structure (SMILES) | MIC99 [1] [mg/L] | pIC50 [2] | T.b. brucei Selectivity Indices (SI, IC50 (μM)/IC50 (μM)) Group ([3]; Alkyl Amidines and NH Pyrroles) | pIC50 [3] | T.b. brucei Selectivity Index (SI, IC50 (μM)/IC50 (μM)), numeric value [3] | pIC50 [4] | pIC50 [5] | T.b. brucei Selectivity Indices (SI, IC50 (μM)/IC50 (μM)) Group ([3]; Quaternary ammoniums) | T.b. brucei Selectivity Indices (SI, IC50 (μM)/IC50 (μM)) Group ([3]; Amides)
1 | N=C(N)CCNC(=O)c1cc(NC(=O)c2cc(NC(=O)c3ccc(/C=C/c4ccc5nonc5c4)cc3)c[nH]2)c[nH]1 [IIIa8, (E)-N-(3-amino-3-iminopropyl)-4-(4-(4-(2-(benzo[c][1,2,5]oxadiazol-5-yl)vinyl)benzamido)-1H-pyrrole-2-carboxamido)-1H-pyrrole-2-carboxamide] | > 50 | 6.60 to 7.30 | D (Group D: SI > 300) | > 7.30 | 3492 | 6.00 to 6.60 | 6.00 to 6.60 |  | 
2 | CCCCCCCCCC[N+](C)(C)CCNC(=O)c1cc(NC(=O)c2cc(NC(=O)c3ccc(/C=C/c4cnc5ccccc5c4)cc3)cn2C)cn1C [Ic9, (E)-N,N-dimethyl-N-(2-(1-methyl-4-(1-methyl-4-(4-(2-(quinolin-3-yl)vinyl)benzamido)-1H-pyrrole-2-carboxamido)-1H-pyrrole-2-carboxamido)ethyl)decan-1-aminium] | > 50 | 6.60 to 7.30 |  | 6.60 to 7.30 | 131 | 6.60 to 7.30 | 6.60 to 7.30 | D (Group D: SI > 120) | 
3 | Cn1cc(NC(=O)c2ccc(/C=C/c3cnc4ccccc4c3)cc2)cc1C(=O)Nc1c[nH]c(C(=O)NCCC(=N)N)c1 [IIIa2, (E)-N-(5-((3-amino-3-iminopropyl)carbamoyl)-1H-pyrrol-3-yl)-1-methyl-4-(4-(2-(quinolin-3-yl)vinyl)benzamido)-1H-pyrrole-2-carboxamide] | 5 to 25 (≈ 8.7 to 43.5 µM) | 6.60 to 7.30 | D (Group D: SI > 300) | 6.60 to 7.30 | 600 | 6.00 to 6.60 | 6.00 to 6.60 |  | 
4 | N=C(N)CCNC(=O)c1cc(NC(=O)c2cc(NC(=O)c3ccc(/C=C/c4cnc5ccccc5c4)cc3)c[nH]2)c[nH]1 [IIIa6, (E)-N-(3-amino-3-iminopropyl)-4-(4-(4-(2-(quinolin-3-yl)vinyl)benzamido)-1H-pyrrole-2-carboxamido)-1H-pyrrole-2-carboxamide] | 5 to 25 (≈ 8.92 to 44.6 µM) | 6.60 to 7.30 | D (Group D: SI > 300) | > 7.30 | 1192 | 6.00 to 6.60 | 6.00 to 6.60 |  | 
5 | CN(C)c1ccc(/C=C/c2ccc(C(=O)Nc3c[nH]c(C(=O)Nc4c[nH]c(C(=O)NCCC(=N)N)c4)c3)cn2)cc1 [IIIa9, (E)-N-(5-((5-((3-amino-3-iminopropyl)carbamoyl)-1H-pyrrol-3-yl)carbamoyl)-1H-pyrrol-3-yl)-6-(4-(dimethylamino)styryl)nicotinamide] | 5 to 25 (≈ 9.03 to 45.2 µM) | < 6.00 |  | 6.00 to 6.60 |  | 6.00 to 6.60 | 6.00 to 6.60 |  | 
6 | Cn1cc(NC(=O)c2ccc(/C=C/c3ccc4nonc4c3)cc2)cc1C(=O)Nc1c[nH]c(C(=O)NCCC(=N)N)c1 [IIIa3, (E)-N-(5-((3-amino-3-iminopropyl)carbamoyl)-1H-pyrrol-3-yl)-4-(4-(2-(benzo[c][1,2,5]oxadiazol-5-yl)vinyl)benzamido)-1-methyl-1H-pyrrole-2-carboxamide] | 5 to 25 (≈ 8.84 to 44.2 µM) | 6.60 to 7.30 | D (Group D: SI > 300) | > 7.30 | 635 | 6.00 to 6.60 | 6.00 to 6.60 |  | 
7 | Cn1cc(NC(=O)c2cc(NC(=O)c3ccc(/C=C/c4cnc5ccccc5c4)cc3)cn2C)cc1C(=O)NCCC1CCCCC1 [IVa3, (E)-N-(2-cyclohexylethyl)-1-methyl-4-(1-methyl-4-(4-(2-(quinolin-3-yl)vinyl)benzamido)-1H-pyrrole-2-carboxamido)-1H-pyrrole-2-carboxamide] |  | 6.00 to 6.60 |  | 6.00 to 6.60 | 23 | < 6.00 | < 6.00 |  | D (Group D: SI > 3)
8 | CN(C)c1ccc(/C=C/c2ccc(C(=O)Nc3cc(C(=O)Nc4c[nH]c(C(=O)NCCC(=N)N)c4)n(C)c3)cn2)cc1 [IIIa7, (E)-N-(5-((5-((3-amino-3-iminopropyl)carbamoyl)-1H-pyrrol-3-yl)carbamoyl)-1-methyl-1H-pyrrol-3-yl)-6-(4-(dimethylamino)styryl)nicotinamide] | 5 to 25 (≈ 8.81 to 44 µM) | < 6.00 |  | < 6.00 |  | 6.00 to 6.60 | 6.00 to 6.60 |  | 
9 | Cn1cc(NC(=O)c2cc(NC(=O)c3ccc(/C=C/c4cnc5ccccc5c4)cc3)c[nH]2)cc1C(=O)NCCC(=N)N [IIIa4, (E)-N-(3-amino-3-iminopropyl)-1-methyl-4-(4-(4-(2-(quinolin-3-yl)vinyl)benzamido)-1H-pyrrole-2-carboxamido)-1H-pyrrole-2-carboxamide] | 5 to 25 (≈ 8.7 to 43.5 µM) | > 7.30 | D (Group D: SI > 300) | > 7.30 | 3362 | 6.60 to 7.30 | 6.60 to 7.30 |  | 
10 | [H]/N=C(\CCNC(=O)c1cc(NC(=O)c2cc(NC(=O)c3ccc(C=Cc4ccc(N(C)C)cc4)nc3)cn2C)cn1C)NCC [Ia1, (E)-6-(4-(dimethylamino)styryl)-N-(5-((5-((3-(ethylamino)-3-iminopropyl)carbamoyl)-1-methyl-1H-pyrrol-3-yl)carbamoyl)-1-methyl-1H-pyrrol-3-yl)nicotinamide] | 5 to 25 (≈ 8.2 to 41 µM) | 6.00 to 6.60 |  | 6.00 to 6.60 |  | 6.60 to 7.30 | 6.60 to 7.30 |  | 
11 | Cn1cc(NC(=O)c2cc(NC(=O)c3ccc(/C=C/c4ccc5nonc5c4)cc3)c[nH]2)cc1C(=O)NCCC(=N)N [IIIa1, (E)-N-(3-amino-3-iminopropyl)-4-(4-(4-(2-(benzo[c][1,2,5]oxadiazol-5-yl)vinyl)benzamido)-1H-pyrrole-2-carboxamido)-1-methyl-1H-pyrrole-2-carboxamide] | 5 to 25 (≈ 8.84 to 44.2 µM) | 6.60 to 7.30 | D (Group D: SI > 300) | > 7.30 | 1049 | 6.60 to 7.30 | 6.60 to 7.30 |  | 
12 | COc1ccc(/C=C/c2ccc(C(=O)Nc3cc(C(=O)Nc4cc(C(=O)NCCC(=N)NC(C)C)n(C)c4)n(C)c3)cn2)cc1 [Ia15, (E)-N-(5-((5-((3-imino-3-(isopropylamino)propyl)carbamoyl)-1-methyl-1H-pyrrol-3-yl)carbamoyl)-1-methyl-1H-pyrrol-3-yl)-6-(4-methoxystyryl)nicotinamide] |  | 6.00 to 6.60 | B (Group B: 70 < SI <= 150) | 6.00 to 6.60 |  | 6.60 to 7.30 | 6.60 to 7.30 |  | 
